Data published in the RNAGym collection of RNA variant scans (doi:10.1073/pnas.2313332121).
Variants at the background level are over-represented here.

B1: TPR 5TU (parent)
chain: GGAUCUUCUCGAUCUAACAAAAAAGACAAAUCUGCCACAAAGCUUGAGAGCAUCUUCGGAUGCAGAGGCGGCAGCCUUCGGUGGCGCGAUAGCGCCAACGUUCUCAACUAUGACACGCAAAACGCGUGCUCCGUUGAAUGGAGUUUAUCAUG

Variants of: B1
Assay: polymerase ribozyme fitness, log enrichment relative to wild type (log ratio); higher = more active; in vitro selection for triplet polymerase activity
Outline: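 A single round of triplicate in vitro selection, including frozen incubation at −7 °C, was applied to PCR-built, transcribed mutant libraries of each subunit of a heterodimeric triplet polymerase ribozyme. Illumina sequencing of input and output libraries retained genotypes with ≥10 input reads and ≥1 read per output. Fitness is the base-2 logarithm of genotype enrichment divided by wild-type enrichment, from inverse-variance-weighted replicate averages.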

Variant | polymerase ribozyme fitness (log ratio)
C10U C14G A39C A91G C95G C99U C105G A137G | ≤ -4.2
C10A A19U G50A U53G C72U C95U G133C G136U U148A | ≤ -4.2
C10A A16U A17C C76U G86A G88U A97G C103A A106U A142G | ≤ -4.2
C10A C85U | -4.01
C10U A22U C35A U53A G58C G80A C95A U102G A107G | ≤ -4.2
C10U A12G C54U G71U G94A C108A A110U C118G | ≤ -4.2
C10G U53C C93U A107G | ≤ -4.2
C10G A12U C18G C87G G92U U146G | ≤ -4.2
C10A A39C G68A U135C | ≤ -4.2
U9G G74U C75U C93U A98U C105U C108G | ≤ -4.2
C10A A21G U45A G59C C79U A91U C96U | ≤ -4.2
C10G A16C G58A U90C C95U A98G A110C A113U | ≤ -4.2
U9G A21C G34A G83U A138G A142C | ≤ -4.2
G11C C35G C75G A91G C118U | ≤ -4.2
C10G A16U C57U G71C A91G C99A | ≤ -4.2
U9G C18U A20G G25U C75G U144C | ≤ -4.2
G11A A37C A52C U55A G83C | ≤ -4.2
G11C A49C A52C U56A G59C C85U | ≤ -4.2
C10U A49C C95U C105U A120C U148A | ≤ -4.2
U9C U55G | -3.53
G11A C54U A60C C75G A113U U135A A137G | ≤ -4.2

Variant | polymerase ribozyme fitness (log ratio)
U9G A40C C85A G86A | ≤ -4.2
G11A U56G C79U C93A U109C G141C | ≤ -4.2
U9G C35A G81A C85A G141C | ≤ -4.2
G11A A23U A39U U53G C54U C93U A122U A142G | ≤ -4.2
C10G A21U A37U C43U C57U C123U U146A | ≤ -4.2
U9G G48C G62A U82A G84U | ≤ -4.2
C10U A28U C36G C75G A110U C131U | ≤ -4.2
G11A A30C U31C G48A U56A U90G G92A G117U G140C U148A | ≤ -4.2
G11C A52C G94C U101A | ≤ -4.2
U9G A119G U145A | ≤ -4.2
C10U A16C A39C G50U U56A G67C G94C C108U | ≤ -4.2
C10U A26U A39C A60U A113C G143U | ≤ -4.2
C10U C87U A115C U145G | ≤ -4.2
G11A A28U C32U A47U C79A | ≤ -4.2
C10G A20U G42C G62A C75A C87G G141A | ≤ -4.2
G11A G50U C72U C96U U104C C125G G141A | ≤ -4.2
C10A A24U A26U C35G C85U G140U | ≤ -4.2
U9G A23C C75U C87G C105G G140U | ≤ -4.2
G11C A23G A91G C95U A121G | -3.82
C10U U33A C69G C87A A98U U134A U148G | ≤ -4.2
C10G G34C | ≤ -4.2

Variant | polymerase ribozyme fitness (log ratio)
G11A C35U A40C A73C A91U U144G | ≤ -4.2
C10G U13A C35U A40C G84U A121U A122G | ≤ -4.2
C10U U13G C69U C103A G152U | ≤ -4.2
G11A A21G C87A G92A A121C G136A U148C | ≤ -4.2
C10G C63A G83C G88U C108G C114G C125A | ≤ -4.2
C10G C54U G62C G86U U146C | ≤ -4.2
C10G A19U G46A C85A C105U | ≤ -4.2
U9G C27U C35U U55A G74A G94A U104A U148A | ≤ -4.2
U9G G11A A16U G34C C36U A40U U56A G62U G94U A110U | ≤ -4.2
C10U C63U G71A C87U G152A | ≤ -4.2
G11C A20U C36U A60G C93G | ≤ -4.2
C10U A19U A23U C57U G58C C75U U78G C95U C105U | ≤ -4.2
C10U A40G C75U A89C C95U C99A | ≤ -4.2
C10G C69A G84U U90G | ≤ -4.2
C10U C85A | -3.35
U9G U13A G50C G86C A121U G143A | ≤ -4.2
C10A C35U A97U | ≤ -4.2
C10G U56A C96G C108G G140A | ≤ -4.2
U9G U61A C75A G94A A110G G140C | ≤ -4.2
U9G U31G G42U U53A G58C | ≤ -4.2
C10A C57U C95U C105A C116G | ≤ -4.2

Variant | polymerase ribozyme fitness (log ratio)
C10U C76G G83C G88U A119C | ≤ -4.2
U9G G74A G84A A107G | ≤ -4.2
C10U C76A G88U C95G A98G C129A | ≤ -4.2
C10G A16U C76G G84A C118A G141C | ≤ -4.2
C10G A16G A37G G70U C85U G143U | ≤ -4.2
C10G A20U A52C G86A G92U A115U G152A | ≤ -4.2
C10G A12C A29U A60G C87U G94C U139A | ≤ -4.2
U9G C85A C103A C118G U134A | ≤ -4.2
C10A C116G C118G G133U U145G | ≤ -4.2
C10G U13G C38A G59C G81A C85U C95G A106C G136U | ≤ -4.2
U9G A47C C57A A66C C87A A89U A120U A121U C123A C125U U144A | ≤ -4.2
G11A G59A U77G C79U A89C G126A | ≤ -4.2
G11A A40U C69U C118G C129A A142G | ≤ -4.2
G11C A29G A40U C76U C87U | ≤ -4.2
C10G C51U U53A G71C C99G | ≤ -4.2
G11A G34A A41U U55G A106C | ≤ -4.2
G11A U45A A66C C76A G88C G92C A121G G128C | ≤ -4.2
C10G C32G C38G U55G C87A G92A C125G G126A | -4.1
C10A A28U G58A C96U A122G G124C | ≤ -4.2
C10G A24U A37C G92U | ≤ -4.2
U9G A60G G74A | ≤ -4.2
